# Among all 48,000 compounds or so, about 120 (0.25%) were called active. About 4% were inconclusive and are not listed. Calls follow the shape of the dose curve; as a rule, active = well fitted activation curve with a large enough effect; inconclusive = small, poorly fitted or top-dose-only effect, or another doubt; inactive = no such curve, though single readings can be large or run the other way. This is one part of the list.
# Test: Primary qHTS for Identification of Small Molecule Activators of Huntingtin-Antisense Promoter Activity; also: nearly all actives have a fitted effect of over 55% in size
# Conditions: HEK293 HTT-AS promoter firefly luciferase reporter, 24 h; series mostly up to 57.5 µM; activity change, positive = activation: at the top concentration
# Method in brief: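 Quantitative HTS used concentration series of up to 57.5 uM final on HEK293 luciferase reporter cells, 24 h at 37 degrees C. Readout was Dual-Glo firefly luminescence.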
row,Structure (SMILES),"activity change, positive = activation"
1,COc1ccc(-n2nc(C(=O)NCCc3ccc(Cl)cc3)c3c4ccccc4n(C)c3c2=O)cc1Cl,inactive: -3.31%
2,O=C(Cn1c(=O)n(Cc2ccco2)c(=O)c2ccc(C(=O)NC3CCCC3)cc21)Nc1ccc(F)cc1,inactive: -20.9%
3,Cc1cc(C)n(CC(=O)Nc2ccc(F)c(F)c2)c(=O)c1C#N,inactive: -8.57%
4,N#C/C(=C\c1ccc(-c2ccccc2C(=O)O)o1)c1nc2ccccc2[nH]1,inactive: -53.7%
5,CC(C)C[C@@H](N)[C@H](O)C(=O)N[C@H](C(=O)N[C@H](C(=O)N[C@@H](CC(=O)O)C(=O)O)C(C)C)C(C)C,inactive: -11%
6,Cc1cc(-c2ccc(C)c(S(=O)(=O)N3CCCC(C)C3)c2)on1 (stereo not drawn),inactive: -30.8%
7,O=C(Cn1nc2c(cc1=O)CCCC2)Nc1ccc(F)cc1F,inactive: -0.746%
8,COc1ccc(CCNC(=O)c2c(O)nc3cc(C)ccn3c2=O)cc1OC,inactive: -11.1%
9,O=S(=O)(Nc1cccc(Cl)c1)c1ccc2[nH]c3c(c2c1)CCCCCC3,inactive: -37.3%
10,CCc1ccc(CNC(=O)c2ccc(CSc3nc4ccncc4n3Cc3ccc(OC)cc3)cc2)cc1,inactive: -26.2%
11,COc1ccc(N2CCN(C(=O)Cc3coc4ccc(C)cc34)CC2)cc1,inactive: 0.641%
12,COc1ccc(C)cc1NC(=O)C(=O)NCCc1sc(-c2ccc(Cl)cc2)nc1C,inactive: 2.94%
13,CCc1noc(-c2ccc(NC(C)c3ccccc3)c([N+](=O)[O-])c2)n1 (stereo not drawn),inactive: -15.9%
14,CCN(CC)C(=O)C1=C(C)Nc2nc3ccccc3n2C1c1ccc(Br)cc1 (stereo not drawn),inactive: -6.09%
15,CC(=O)c1cccc(NC(=O)CCS(=O)(=O)c2cc3c(cc2C)NC(=O)CO3)c1,inactive: -4.93%
16,CCOC(=O)c1c(NC(C)=O)c2c3c(sc2n1Cc1nc(-c2ccc(Cl)cc2)oc1C)CCCC3,inactive: 1.23%
17,Cc1ccc2nc(/C(C#N)=C/c3cccc(Br)c3)[nH]c2c1,inactive: 4.55%
18,O=C(Cc1csc2ccccc12)NCc1cccc(Br)c1,inactive: 8.78%
19,CN(C)S(=O)(=O)n1cc(/C=C(\NC(=O)c2ccccc2F)C(=O)NCCCn2ccnc2)c2ccccc21,inactive: -4.85%
20,OC(c1cc(C(F)(F)F)nc2c(C(F)(F)F)cccc12)C1CCCCN1 (stereo not drawn),inactive: -16%
21,Cc1ccccc1CN1CCC(CNc2ncnc3onc(-c4ccc(Cl)cc4)c23)CC1,inactive: -16%
22,Cc1ccc(NC(=O)C2CCCN(c3ncnc4c3nc3n4CCCCC3)C2)cc1F (stereo not drawn),inactive: -27.9%
23,CCOc1ccc(NC(=O)c2c(NC(=O)c3ccco3)sc3c2CCC(C(C)(C)C)C3)cc1 (stereo not drawn),inactive: -2.75%
24,Cc1nc2cccnc2n1-c1cccc(C(=O)NCc2ccc(OC(C)C)cc2)c1,inactive: -28.2%

row,Structure (SMILES),"activity change, positive = activation"
1,O=C(O)CC(NS(=O)(=O)c1ccc(Cl)s1)c1ccccc1 (stereo not drawn),inactive: -11.2%
2,O=C(Nc1cccc(C(F)(F)F)c1)C1CCN(c2nnc(-n3cccc3)s2)CC1,inactive: -4.09%
3,COc1cc(NS(=O)(=O)c2ccc(NC(=O)C(C)Oc3ccc(Cl)cc3Cl)cc2)nc(OC)n1 (stereo not drawn),inactive: -19.3%
4,COc1ccc(Nc2c(-c3ccc(Cl)cc3)nc3cnccn23)cc1OC,inactive: -23.3%
5,CCC12CN3CC(C)(CN(C1)C3c1ccc(O)cc1O)C2=O (stereo not drawn),inactive: 1.91%
6,O=C(NCc1ccccc1Cl)C1CCN(S(=O)(=O)c2ccc3c(c2)CCCN3C(=O)C2CCC2)CC1,inactive: -19%
7,Cc1cc(C)cc(Oc2coc3c(CN4CCN(C)CC4)c(O)ccc3c2=O)c1,"inactive: 12.5% [at 11.5 µM, percent change from vehicle, -100% = no light]"
8,COc1cccc(CNC(=O)c2nnn(CC(=O)Nc3cc(Cl)ccc3C)c2N)c1,inactive: -7.09%
9,O=S(=O)(c1ccc(F)cc1)N1CCC(Oc2ccc(-n3cnnn3)cc2)CC1,inactive: -18.9%
10,Cc1ccc(Nc2cc(C)nc3nc(Cc4ccc(Cl)cc4)nn23)cc1,inactive: -32.3%
11,COc1cccc(CNC(=O)Cn2c(=O)oc3cc(S(=O)(=O)N4CCCC4)ccc32)c1,inactive: -29.5%
12,Cc1ccc(-c2ccc(=O)n(Cc3ccc(F)cc3)n2)cc1,inactive: -18.8%
13,CCC(=O)N1CCc2cc(Br)cc(S(=O)(=O)CCC(=O)Nc3cccc(CC)c3)c21,inactive: 2.79%
14,CC(NC(=O)C1(c2cccs2)CCOCC1)c1ccccc1 (stereo not drawn),inactive: -12.2%
15,CCn1cc(C(=O)N2CCN(c3cc(Cl)ccc3C)CC2)c2cc(OC)c(OC)cc2c1=O,inactive: -5.06%
16,CCCN(CCC)CCCNC(=O)c1cc2c(=O)oc3ccc(C)cc3c2s1,inactive: -5.25%
17,CCOc1ccc(CCNC(=O)CCCc2cc(-c3ccc(OCC)cc3)on2)cc1,inactive: -77.5%
18,CCn1cc(S(=O)(=O)c2ccc(OC)cc2)c(=O)c2cc(F)c(N3CCC(C)CC3)cc21,inactive: -5.54%
19,CNCCCC12CCC(c3ccccc31)c1ccccc12,inactive
20,CCCN(CCC)CCCNC(=O)C1CCC(CNS(=O)(=O)c2cccc3nsnc23)CC1 (stereo not drawn),inactive: 11.7%
21,Cc1ccc(CN(Cc2ccco2)C(=O)COc2c(C)cc(C)cc2C)cc1,inactive: -39.6%
22,Oc1ccc(-c2nc3ccccn3c2Nc2ccc3c(c2)OCCO3)cc1,inactive: 18.7%
23,CCCCNS(=O)(=O)c1ccc2nc(-c3cccnc3)cc(C(=O)NCCC)c2c1,inactive: -18.3%
24,CC(=CC(=O)Nc1ccccc1C(=O)O)c1ccc2ccccc2c1,inactive: -0.3%
